From the supplement of paper PMC3334620
The full ranking holds about 33,000 sequences; the median of “E-score (-0.5 to 0.5)” is about -0.041, and the highest 2% start at about 0.37. Some of the results follow.

molecular target: T1, Ecm22 (UniProt Q05958); assay: PBM E-score (8-mer binding enrichment) (E-score (-0.5 to 0.5)); higher = stronger / more preferred TF binding; most listed sequences are background and not binding sites; details: protein concentration: 200 nM; construct: GST-full length
T1 sequence: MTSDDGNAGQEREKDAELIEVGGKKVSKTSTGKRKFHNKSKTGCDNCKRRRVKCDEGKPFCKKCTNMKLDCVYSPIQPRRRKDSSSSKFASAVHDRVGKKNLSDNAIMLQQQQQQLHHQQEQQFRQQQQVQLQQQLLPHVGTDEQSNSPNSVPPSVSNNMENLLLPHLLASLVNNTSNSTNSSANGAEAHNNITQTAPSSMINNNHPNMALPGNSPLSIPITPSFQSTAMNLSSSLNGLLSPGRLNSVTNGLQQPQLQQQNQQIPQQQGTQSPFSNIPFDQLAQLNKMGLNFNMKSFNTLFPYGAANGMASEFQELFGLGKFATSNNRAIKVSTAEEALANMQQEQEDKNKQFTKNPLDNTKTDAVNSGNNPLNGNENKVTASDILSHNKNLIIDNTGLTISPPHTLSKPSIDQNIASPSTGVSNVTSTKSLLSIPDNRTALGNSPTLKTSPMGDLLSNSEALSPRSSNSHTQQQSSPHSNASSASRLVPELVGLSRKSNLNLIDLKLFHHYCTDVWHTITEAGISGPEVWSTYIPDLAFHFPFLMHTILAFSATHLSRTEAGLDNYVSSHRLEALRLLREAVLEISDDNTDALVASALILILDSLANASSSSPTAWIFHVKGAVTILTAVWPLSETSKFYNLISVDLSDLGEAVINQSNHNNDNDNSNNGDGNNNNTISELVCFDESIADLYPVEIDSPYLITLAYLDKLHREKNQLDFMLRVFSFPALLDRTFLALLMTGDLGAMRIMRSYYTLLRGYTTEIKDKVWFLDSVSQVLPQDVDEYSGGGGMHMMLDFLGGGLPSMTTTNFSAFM
Procedure, shortened: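 Masliner-normalised scans of fluorescent anti-GST signal were the basis for scoring. That signal came from GST-tagged yeast transcription factors applied at about 100-200 nM to double-stranded universal all-10-mer Agilent arrays on fresh or once-stripped slides. Each ungapped eight-base word, pooled with its reverse complement, received an E-score from the Universal PBM Analysis Suite.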

Sequence	PBM E-score
GCGTAGCC	-0.0221
CATGGTCA	0.0751
CACCTAAA	-0.0218
AAGCAGTA	-0.085
ATCGAGAA	0.114
AGTCACGG	-0.0876
AGGCGCAT	-0.136
CTAATTCC	-0.231
CACACGCC	-0.114
GTCTTCTA	-0.101
CGCTTTGC	-0.00819
CAACCCAC	-0.117
AACCCAAT	-0.225
CCCTGTAC	-0.00346
AATGGACA	-0.0492
TGTTATAA	0.0469
GCGGAGAA	0.038
CCTCGTGA	0.201
GTTAAGAA	-0.0835
AGCTAGTG	-0.0503
ATTCACGG	-0.0041
CGGTGAGC	0.057

Sequence	PBM E-score
ATAGTGTC	0.00694
CGCAAGTA	0.0813
CCGCTCGA	-0.03
AACCGAAC	0.21
CCTGTCTA	-0.248
CCTGGCGC	-0.0858
AGTTCACG	0.163
CCGACAAA	0.0481
CCGAGAAG	0.0409
CAACTCCC	-0.0438
AAGTTCAC	-0.0931
CGCTTCGC	0.219
AGTGAAAC	0.0286
CCCATATA	-0.111
GGGACACA	-0.104
CATTATGC	0.0457
CCCATCCG	0.139
ATATTCTC	-0.0713
CATATGAC	-0.0289
GAGTTACA	-0.162
GCACTTCA	-0.0658
GAGCCACC	-0.23

Sequence	PBM E-score
ATGCAAAA	-0.118
TCTGAAAA	-0.165
CATATAAA	0.00534
CGGATCTC	0.164
CATCACCG	0.0155
CTCTCGGA	0.136
CCTCGAAC	-0.00586
GACGCAAC	0.0742
AAGTCCAT	-0.241
ACAAGGTC	-0.0836
ATCCATCC	0.00649
GTAAGCCA	0.0195
AAGCGGAA	-0.0206
CATCATGC	-0.12
ATTTCTTG	-0.125
CAACGAAA	0.278
ACGGGAGG	0.0781
GTTAATCA	0.14
TCTTACAA	-0.102
ATTAGGAC	-0.0376
GTGTTCCA	-0.161
CCAAGTTC	-0.118

Sequence	PBM E-score
GCACCAGC	-0.213
GCCGCTCA	-0.248
GTAAACTA	0.188
CGGCCCTA	-0.221
GCACCAAA	-0.148
ATCCAGAC	-0.244
AGAGGTGA	-0.212
CTTAGTAC	0.199
ATGGAACG	0.402
AGTCAACG	-0.0408
AGTTAATC	0.0122
GAAAACAC	-0.00741
AGTTGCGG	-0.00187
AGCCGTGA	-0.182
ACGCCCTA	-0.178
ACAGTTAA	0.0956
ATAATGTG	-0.057
ATCTGACG	-0.226
CGTATAAG	0.466
ACGACAGC	0.319
